According to the supplement of paper PMC8728848:
The list shows a part of the results.

Assays:
Experiment in all cases: glycan array binding signal (z-score within array); higher = stronger binding
Conditions in all cases: glycan notation: IUPAC condensed, linker removed
[1] = molecular target: Gal(a1-4)Gal(b1-4)GlcNAc(b1-3)Gal(b1-4)Glc
Summary of the method: (§1)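 From the Consortium for Functional Glycomics database, 3228 arrays were curated, keeping only those whose protein sequence was available. Binding is given as a within-array Z-score averaged across arrays sharing a protein sequence and across linkers. Negative Z-scores can be read as non-binding.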

Gal(a1-4)GlcNAc = molecular target: Gal(a1-4)GlcNAc
Summary of the method: as §1

Gal(a1-6)Glc = molecular target: Gal(a1-6)Glc
Summary of the method: as §1

Gal(b1-2)Gal = molecular target: Gal(b1-2)Gal
Summary of the method: as §1

Gal(b1-3)Gal = molecular target: Gal(b1-3)Gal
Summary of the method: as §1

Gal(b1-3)Gal(b1-4)GlcNAc = molecular target: Gal(b1-3)Gal(b1-4)GlcNAc
Summary of the method: as §1

Gal(b1-3)GalNAc = molecular target: Gal(b1-3)GalNAc
Summary of the method: as §1

[2] = molecular target: Gal(b1-3)GalNAc(a1-3)[Fuc(a1-2)]Gal(b1-4)Glc
Summary of the method: as §1

[3] = molecular target: Gal(b1-3)GalNAc(a1-3)[Fuc(a1-2)]Gal(b1-4)GlcNAc
Summary of the method: as §1

Gal(b1-3)GalNAc(b1-3)Gal = molecular target: Gal(b1-3)GalNAc(b1-3)Gal
Summary of the method: as §1

[4] = molecular target: Gal(b1-3)GalNAc(b1-3)Gal(a1-4)Gal(b1-4)Glc
Summary of the method: as §1

[5] = molecular target: Gal(b1-3)GalNAc(b1-4)Gal(b1-4)Glc
Summary of the method: as §1

[6] = molecular target: Gal(b1-3)GalNAc(b1-4)[Neu5Ac(a2-3)]Gal(b1-4)Glc
Summary of the method: as §1

Gal(b1-3)GlcNAc = molecular target: Gal(b1-3)GlcNAc
Summary of the method: as §1

[7] = molecular target: Gal(b1-3)GlcNAc(a1-3)Gal(b1-4)GlcNAc
Summary of the method: as §1

[8] = molecular target: Gal(b1-3)GlcNAc(a1-6)Gal(b1-4)GlcNAc
Summary of the method: as §1

Gal(b1-3)GlcNAc(b1-2)Man = molecular target: Gal(b1-3)GlcNAc(b1-2)Man
Summary of the method: as §1

[9] = molecular target: Gal(b1-3)GlcNAc(b1-2)Man(a1-3)[Gal(b1-3)GlcNAc(b1-2)Man(a1-6)]Man(b1-4)GlcNAc(b1-4)GlcNAc
Summary of the method: as §1

[10] = molecular target: Gal(b1-3)GlcNAc(b1-2)Man(a1-3)[Gal(b1-3)GlcNAc(b1-2)Man(a1-6)]Man(b1-4)GlcNAc(b1-4)[Fuc(a1-6)]GlcNAc
Summary of the method: as §1

[11] = molecular target: Gal(b1-3)GlcNAc(b1-2)Man(a1-3)[GlcNAc(b1-4)][Gal(b1-3)GlcNAc(b1-2)Man(a1-6)]Man(b1-4)GlcNAc(b1-4)GlcNAc
Summary of the method: as §1

[12] = molecular target: Gal(b1-3)GlcNAc(b1-2)[Gal(b1-3)GlcNAc(b1-6)]Man(a1-6)[Gal(b1-3)GlcNAc(b1-2)Man(a1-3)]Man(b1-4)GlcNAc(b1-4)GlcNAc
Summary of the method: as §1

[13] = molecular target: Gal(b1-3)GlcNAc(b1-3)Gal(b1-3)GlcNAc
Summary of the method: as §1

[14] = molecular target: Gal(b1-3)GlcNAc(b1-3)Gal(b1-4)Glc
Summary of the method: as §1

[15] = molecular target: Gal(b1-3)GlcNAc(b1-3)Gal(b1-4)GlcNAc
Summary of the method: as §1

[16] = molecular target: Gal(b1-3)GlcNAc(b1-3)Gal(b1-4)GlcNAc(b1-2)Man(a1-3)[Gal(b1-3)GlcNAc(b1-3)Gal(b1-4)GlcNAc(b1-2)Man(a1-6)]Man(b1-4)GlcNAc(b1-4)GlcNAc
Summary of the method: as §1

[17] = molecular target: Gal(b1-3)GlcNAc(b1-3)Gal(b1-4)GlcNAc(b1-2)[Gal(b1-3)GlcNAc(b1-3)Gal(b1-4)GlcNAc(b1-6)]Man(a1-6)[Gal(b1-3)GlcNAc(b1-3)Gal(b1-4)GlcNAc(b1-2)Man(a1-3)]Man(b1-4)GlcNAc(b1-4)[Fuc(a1-6)]GlcNAc
Summary of the method: as §1

[18] = molecular target: Gal(b1-3)GlcNAc(b1-3)Gal(b1-4)GlcNAc(b1-3)Gal(b1-4)GlcNAc(b1-2)[Gal(b1-3)GlcNAc(b1-3)Gal(b1-4)GlcNAc(b1-3)Gal(b1-4)GlcNAc(b1-6)]Man(a1-6)[Gal(b1-3)GlcNAc(b1-3)Gal(b1-4)GlcNAc(b1-3)Gal(b1-4)GlcNAc(b1-2)Man(a1-3)]Man(b1-4)GlcNAc(b1-4)[Fuc(a1-6)]GlcNAc
Summary of the method: as §1

[19] = molecular target: Gal(b1-3)GlcNAc(b1-3)Gal(b1-4)GlcNAc(b1-6)[Gal(b1-3)GlcNAc(b1-3)]Gal(b1-4)Glc
Summary of the method: as §1

[20] = molecular target: Gal(b1-3)GlcNAc(b1-3)Gal(b1-4)[Fuc(a1-3)]GlcNAc
Summary of the method: as §1

[21] = molecular target: Gal(b1-3)GlcNAc(b1-3)Gal(b1-4)[Fuc(a1-3)]GlcNAc(b1-6)[Gal(b1-3)GlcNAc(b1-3)]Gal(b1-4)Glc
Summary of the method: as §1

[22] = molecular target: Gal(b1-3)GlcNAc(b1-3)GalNAc
Summary of the method: as §1

[23] = molecular target: Gal(b1-3)GlcNAc(b1-6)Gal(b1-4)GlcNAc
Summary of the method: as §1

[24] = molecular target: Gal(b1-3)GlcNAc(b1-6)GalNAc
Summary of the method: as §1

[25] = molecular target: Gal(b1-3)GlcNAc(b1-6)[Gal(b1-3)]GalNAc
Summary of the method: as §1

Gal(b1-3)GlcNAc6S = molecular target: Gal(b1-3)GlcNAc6S
Summary of the method: as §1

[26] = molecular target: Gal(b1-3)[Fuc(a1-4)]GlcNAc
Summary of the method: as §1

[27] = molecular target: Gal(b1-3)[Fuc(a1-4)]GlcNAc(b1-2)Man
Summary of the method: as §1

B1: AMA (Arum maculatun) (protein)
chain: MAKLLLLLLLPAIVGLAVPRSAAAVGSNYMLSGETLNTDGRLTNGELTLIMQVDCNLVLYHGGWQSNTANNGRDCKLTLTDFGELVIKSGTGSTVWSSGSKQSMKGNYAAVVHPEGRLVIYGPSVFKINPSGAGLNGLPLRNIPLTNNMLFSGQVLYGDGTLSARNHKLVMQGDCNMVLYGGKYGWQSNTHGNGKYCFAMLTHKGELVIRDDDFKSVWSSKSSSKQGDYVFILQDDSLAIIYGPAVFSTGSKKMISMVTN
- glycan array binding signal (z-score) [1]: -0.216
- glycan array binding signal (z-score) (Gal(a1-4)GlcNAc): -0.135
- glycan array binding signal (z-score) (Gal(a1-6)Glc): -0.214
- glycan array binding signal (z-score) (Gal(b1-2)Gal): -0.128
- glycan array binding signal (z-score) (Gal(b1-3)Gal): -0.222
- glycan array binding signal (z-score) (Gal(b1-3)Gal(b1-4)GlcNAc): -0.208
- glycan array binding signal (z-score) (Gal(b1-3)GalNAc): -0.217
- glycan array binding signal (z-score) [2]: -0.223
- glycan array binding signal (z-score) [3]: -0.216
- glycan array binding signal (z-score) (Gal(b1-3)GalNAc(b1-3)Gal): -0.214
- glycan array binding signal (z-score) [4]: -0.217
- glycan array binding signal (z-score) [5]: -0.209
- glycan array binding signal (z-score) [6]: -0.199
- glycan array binding signal (z-score) (Gal(b1-3)GlcNAc): -0.215
- glycan array binding signal (z-score) [7]: -0.22
- glycan array binding signal (z-score) [8]: -0.208
- glycan array binding signal (z-score) (Gal(b1-3)GlcNAc(b1-2)Man): -0.206
- glycan array binding signal (z-score) [9]: 3.15
- glycan array binding signal (z-score) [10]: 1.01
- glycan array binding signal (z-score) [11]: -0.205
- glycan array binding signal (z-score) [12]: -0.207
- glycan array binding signal (z-score) [13]: -0.207
- glycan array binding signal (z-score) [14]: -0.214
- glycan array binding signal (z-score) [15]: -0.22
- glycan array binding signal (z-score) [16]: 0.323
- glycan array binding signal (z-score) [17]: -0.169
- glycan array binding signal (z-score) [18]: -0.182
- glycan array binding signal (z-score) [19]: -0.215
- glycan array binding signal (z-score) [20]: -0.209
- glycan array binding signal (z-score) [21]: -0.21
- glycan array binding signal (z-score) [22]: -0.212
- glycan array binding signal (z-score) [23]: -0.22
- glycan array binding signal (z-score) [24]: -0.216
- glycan array binding signal (z-score) [25]: -0.211
- glycan array binding signal (z-score) (Gal(b1-3)GlcNAc6S): -0.221
- glycan array binding signal (z-score) [26]: -0.21
- glycan array binding signal (z-score) [27]: -0.201
